# PubChem BioAssay AID1347073 (National Center for Advancing Translational Sciences (NCATS), 2019)
# Among all 45,000 compounds or so, about 200 (0.44%) were called active. This list was built around the results that the source calls inconclusive (neither active nor inactive); the mix of calls is not that of the screen. Calls come from the whole dose curve; as a rule, active = well fitted activation curve with a large enough effect; inconclusive = small, poorly fitted or top-dose-only effect; inactive = no such curve, though single readings can be large or run the other way. Potencies beside an inconclusive call are fits to weak or partial responses and may not hold up.
# Experiment: qHTS of TDP-43 Inhibitors: NCGC Sytravon Library Screen; note: nearly all actives have a fitted effect of over 55% in size; for growth rescue (activation): 0% is about no effect
# Details: yeast TDP-43 toxicity rescue, BacTiter-Glo growth, 24 h; growth rescue (activation): at 46.1 µM (top of the series)
# How it was run: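 TDP-43-expressing yeast, pregrown in raffinose, seeded at OD600 0.02 in galactose medium with compound for 24 hr at 30 deg C. Growth read by BacTiter-Glo luminescence, so rescue of toxicity appears as activation.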
# Potency is the fitted concentration of half-maximal effect; tags give direction and shape of the fitted curve.
SMILES,Potency,growth rescue (activation)
O=C(NC(C(=O)N/N=C/c1ccncc1)c1n[nH]c(=O)c2ccccc12)c1ccccc1 (configuration not stated),"inconclusive: 35.5 µM [activator, single point]",–
COc1c(C)cccc1C(=O)NCc1ccc2c(c1)OCO2,"inconclusive: 17.8 µM [activator, single point]",–
O=C(COC(=O)C1CC2C=CC1C2)NCc1ccccc1Cl (configuration not stated),"inconclusive: 7.94 µM [activator, partial curve, poor fit]",–
COc1ccc(N2CCN(C(=O)c3cc(=O)c4cc(C)cc(C)c4o3)CC2)cc1,"inconclusive: 12.6 µM [activator, single point]",–
Cc1ccc(NC(=O)COC(=O)c2ccccc2F)cc1S(=O)(=O)N1CCCCC1,"inconclusive: 10 µM [activator, partial curve, poor fit]",–
CC1CN(C(=O)CS(=O)(=O)Cc2ccccc2)CC(C)O1 (configuration not stated),inactive,–
COc1ccccc1N1CCN(C(=O)c2cc(-c3ccc(C)c(F)c3)on2)CC1,"inconclusive: 22.4 µM [activator, partial curve, poor fit]",–
COc1ccc(NC(=O)CN2C(=O)C(c3ccc(C(C)(C)C)cc3)=NC2(C)C)cc1Cl,inactive,–
COc1cccc(CNC(=O)Cn2nc([N+](=O)[O-])c(Br)c2C)c1,inactive,–
COc1cc(OC)cc(C2=NC3(CCC(C)CC3)NC2=S)c1 (configuration not stated),"inconclusive: 12.6 µM [activator, partial curve, poor fit]",–
COC(=O)c1ccc(CNC(=O)C2CCC(=O)N(CCN3CCOCC3)C2)cc1 (configuration not stated),inactive,–
CC(=O)Nc1cccc(-c2ccnc3c2CC(C)(C(=O)Nc2ccc4c(c2)OCO4)O3)c1 (configuration not stated),inactive,–
Cc1ccc(C(=O)N2CCC(Cc3ccccc3)CC2)cc1S(=O)(=O)N1CCOCC1,"inconclusive: 20 µM [activator, partial curve, poor fit]",–
O=[N+]([O-])c1cccc(S(=O)(=O)NCCc2cccs2)c1,"inconclusive: 3.55 µM [activator, partial curve, poor fit]",–
O=C(O)Cc1sc(-c2ccccc2Cl)nc1-c1ccccc1,"inconclusive: 20 µM [activator, single point]",–
CCCCN(CCCC)c1cc(C)nc(-c2ccccc2O)n1,"inconclusive: 20 µM [activator, single point]",–
CCNC(=O)NC(=O)COC(=O)CCCSc1nc2ccccc2s1,"inconclusive: 15.8 µM [activator, single point]",–
CC(C)(C)SCCNC(=O)/C=C/c1cccc([N+](=O)[O-])c1,inactive,–
O=c1[nH]c2ccccc2n1Cc1ccc(Cl)cc1,"inconclusive: 11.2 µM [activator, single point]",–
Cc1ccccc1-n1c(SCC(=O)N/N=C/c2ccccc2OCC(=O)O)nc2ccccc2c1=O,"inconclusive: 35.5 µM [activator, single point]",–
CCCCc1ccc(NC(=S)NCC2CCCO2)cc1 (configuration not stated),"inconclusive: 17.8 µM [activator, partial curve, poor fit]",–

SMILES,Potency,growth rescue (activation)
COc1ccc(/C=C2\COc3ccccc3C2=O)c(OC)c1,"inconclusive: 12.6 µM [activator, partial curve, poor fit]",–
CC(O)(c1ccccc1)c1nc(-c2ccc(F)c(Cl)c2)cs1 (configuration not stated),–,inconclusive: -88.5% [activator]
C=C(C(=O)c1ccccc1)C(C)C(=C)C(=O)c1ccccc1,"inconclusive: 35.5 µM [activator, single point]",–
COc1ccc(/C=C/C(=O)N2CCCc3ccccc32)c(OC)c1,"inconclusive: 15.8 µM [activator, single point]",–
COc1ccc(C(Nc2cc(C)ccn2)c2ccc3ccc(C)nc3c2O)cc1 (configuration not stated),"inconclusive: 35.5 µM [activator, single point]",–
O=C(Nc1cc(C(F)(F)F)ccc1Cl)C(Sc1n[nH]c(=O)[nH]c1=O)c1ccccc1 (configuration not stated),"inconclusive: 35.5 µM [activator, single point]",–
Cc1ccccc1C(=O)NCCOc1ccccc1Cl,"inconclusive: 11.2 µM [activator, partial curve, poor fit]",–
Cc1ccc(NC(=S)N2CCN(c3ncccn3)CC2)cc1C,"inconclusive: 28.2 µM [activator, single point]",–
Cc1ccc(CCNC(=O)CSCc2ccc(F)cc2)cc1,"inconclusive: 11.2 µM [activator, partial curve, poor fit]",–
Cc1ccc(NC(=O)Nc2ccc(F)c(Cl)c2)cc1,inactive,–
Cc1ccc(OCC(=O)Nc2ccccc2N2CCCC2)c(C)c1,"inconclusive: 14.1 µM [activator, single point]",–
COc1ccc(CCC(=O)NCCc2ccc(Cl)cc2)cc1,"inconclusive: 20 µM [activator, partial curve, poor fit]",–
CCC(=O)N(C)CCc1cc2c(c(OC)c1/C=N/Nc1ccc(C(=O)O)cc1)OCO2,"inconclusive: 35.5 µM [activator, single point]",–
Cc1ccc(SCCNC(=O)c2ccc([N+](=O)[O-])c(C)c2)cc1,"inconclusive: 15.8 µM [activator, single point]",–
CCNC(=S)Nc1cc(Cl)ccc1Oc1ccccc1,"inconclusive: 11.2 µM [activator, partial curve, poor fit]",–
COc1cccc(C(O)c2nc(-c3ccc(F)c(Cl)c3)cs2)c1 (configuration not stated),–,inconclusive: -70.5% [activator]
CC1(C(=O)Nc2cccc3ncccc23)CCN1C(=O)Cc1ccc(-c2ccccc2)cc1 (configuration not stated),"inconclusive: 20 µM [activator, single point]",–
O=C(c1cccs1)n1nc(-c2cccnc2)nc1NCc1ccco1,"inconclusive: 35.5 µM [activator, single point]",–
Cc1ccc(NC(=O)c2ccc([N+](=O)[O-])s2)cc1S(=O)(=O)N1CCOCC1,inactive,–
Cc1ccc(F)cc1-c1nc(NCC2CC2)nc2ccsc12,"inconclusive: 12.6 µM [activator, partial curve, poor fit]",–
CC(=O)Nc1ccc(C(=O)OCC(=O)NCCC2=CCCCC2)cc1,"inconclusive: 15.8 µM [activator, partial curve, poor fit]",–
